Results as given in publication PMC8473724.
Where a chain is given by its changes, count along the chain named. No constants are given. Whether binding was seen depends on the method and setting. Binding seen in cells or lysates may run through a third protein. Some results given as binding are weak or reduced against the parent protein; the word gives no strength. For part of these data: Tags and fused reporters may be left off the sequences shown.

The chains behind the UniProt entries cited, without tags or fusion partners. Where a name states a change or a piece, a line headed by the entry shows the natural chain unless it says otherwise. A line that says so, or that is headed by a name, gives the form on record, which may keep a tag or linker. Residues count along the entry.
CD22 (cluster of differentiation-22), endogenous (P20273, residues 20-847): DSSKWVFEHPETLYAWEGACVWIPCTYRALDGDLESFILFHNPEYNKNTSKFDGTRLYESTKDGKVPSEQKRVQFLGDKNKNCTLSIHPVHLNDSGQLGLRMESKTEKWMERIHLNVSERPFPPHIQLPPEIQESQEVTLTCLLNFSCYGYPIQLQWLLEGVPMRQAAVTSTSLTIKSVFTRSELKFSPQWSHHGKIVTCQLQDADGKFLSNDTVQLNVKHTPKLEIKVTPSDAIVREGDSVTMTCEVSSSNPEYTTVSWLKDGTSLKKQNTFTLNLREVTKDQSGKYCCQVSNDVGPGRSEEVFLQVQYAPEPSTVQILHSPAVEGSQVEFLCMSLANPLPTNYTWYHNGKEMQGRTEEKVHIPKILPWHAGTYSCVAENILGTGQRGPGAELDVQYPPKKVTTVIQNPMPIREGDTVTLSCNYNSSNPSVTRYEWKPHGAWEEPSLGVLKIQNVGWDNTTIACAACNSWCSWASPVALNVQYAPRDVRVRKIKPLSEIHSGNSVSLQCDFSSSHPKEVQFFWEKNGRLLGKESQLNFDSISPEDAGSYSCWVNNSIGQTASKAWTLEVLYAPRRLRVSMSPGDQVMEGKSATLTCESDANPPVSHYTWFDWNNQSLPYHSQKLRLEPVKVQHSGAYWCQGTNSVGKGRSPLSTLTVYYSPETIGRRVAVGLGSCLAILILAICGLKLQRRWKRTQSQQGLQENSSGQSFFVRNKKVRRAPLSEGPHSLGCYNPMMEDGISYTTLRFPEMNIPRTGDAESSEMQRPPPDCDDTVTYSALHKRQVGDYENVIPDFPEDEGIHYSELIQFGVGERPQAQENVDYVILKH
Myc-tagged CD22-Y807F mutant (P20273, form named): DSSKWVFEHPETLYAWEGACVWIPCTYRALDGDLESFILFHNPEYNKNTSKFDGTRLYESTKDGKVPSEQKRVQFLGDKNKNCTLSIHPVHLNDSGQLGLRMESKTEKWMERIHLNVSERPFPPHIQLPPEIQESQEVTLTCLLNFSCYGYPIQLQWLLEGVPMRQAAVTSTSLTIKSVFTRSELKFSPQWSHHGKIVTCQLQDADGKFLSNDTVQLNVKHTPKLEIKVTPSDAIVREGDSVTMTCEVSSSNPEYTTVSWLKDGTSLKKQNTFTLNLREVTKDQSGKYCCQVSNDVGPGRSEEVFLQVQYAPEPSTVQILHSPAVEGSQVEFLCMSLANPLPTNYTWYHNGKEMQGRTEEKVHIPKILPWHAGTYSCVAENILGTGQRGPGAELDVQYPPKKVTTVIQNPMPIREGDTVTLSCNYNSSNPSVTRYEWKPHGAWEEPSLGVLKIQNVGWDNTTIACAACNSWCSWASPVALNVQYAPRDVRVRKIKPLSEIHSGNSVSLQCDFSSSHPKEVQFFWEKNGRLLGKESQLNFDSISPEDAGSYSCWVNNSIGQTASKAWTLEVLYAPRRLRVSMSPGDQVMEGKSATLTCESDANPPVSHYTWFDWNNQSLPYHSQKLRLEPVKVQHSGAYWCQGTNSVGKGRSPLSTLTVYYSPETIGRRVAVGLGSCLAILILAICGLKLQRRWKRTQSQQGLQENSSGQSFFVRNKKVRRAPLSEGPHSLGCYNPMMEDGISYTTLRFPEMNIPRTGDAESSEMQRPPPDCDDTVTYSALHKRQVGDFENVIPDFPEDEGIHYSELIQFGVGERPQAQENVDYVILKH
UniProt P62993: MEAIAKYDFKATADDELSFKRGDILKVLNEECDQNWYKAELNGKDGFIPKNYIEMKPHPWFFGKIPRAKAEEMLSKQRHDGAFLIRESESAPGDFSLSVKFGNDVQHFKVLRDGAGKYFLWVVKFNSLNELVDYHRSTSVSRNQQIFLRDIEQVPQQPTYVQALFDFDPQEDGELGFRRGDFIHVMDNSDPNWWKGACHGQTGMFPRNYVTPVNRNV
UniProt Q06187: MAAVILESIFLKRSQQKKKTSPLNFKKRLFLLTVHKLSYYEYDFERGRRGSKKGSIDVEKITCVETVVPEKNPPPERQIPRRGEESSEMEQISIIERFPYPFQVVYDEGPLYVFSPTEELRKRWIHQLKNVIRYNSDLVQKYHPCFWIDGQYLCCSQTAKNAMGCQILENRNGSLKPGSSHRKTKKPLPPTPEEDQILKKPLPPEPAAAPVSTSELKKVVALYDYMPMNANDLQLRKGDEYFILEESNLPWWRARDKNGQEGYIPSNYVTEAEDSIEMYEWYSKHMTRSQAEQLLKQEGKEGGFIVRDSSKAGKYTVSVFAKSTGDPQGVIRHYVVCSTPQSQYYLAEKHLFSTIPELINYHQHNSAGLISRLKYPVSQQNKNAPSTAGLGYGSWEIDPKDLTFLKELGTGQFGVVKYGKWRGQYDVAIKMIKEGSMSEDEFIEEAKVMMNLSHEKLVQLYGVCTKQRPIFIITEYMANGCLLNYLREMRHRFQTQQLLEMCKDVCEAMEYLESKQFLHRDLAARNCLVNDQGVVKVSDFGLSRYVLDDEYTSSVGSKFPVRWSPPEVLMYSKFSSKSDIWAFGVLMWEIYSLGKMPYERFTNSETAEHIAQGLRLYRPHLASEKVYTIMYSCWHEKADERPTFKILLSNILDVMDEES
UniProt P11912, residues 33-226: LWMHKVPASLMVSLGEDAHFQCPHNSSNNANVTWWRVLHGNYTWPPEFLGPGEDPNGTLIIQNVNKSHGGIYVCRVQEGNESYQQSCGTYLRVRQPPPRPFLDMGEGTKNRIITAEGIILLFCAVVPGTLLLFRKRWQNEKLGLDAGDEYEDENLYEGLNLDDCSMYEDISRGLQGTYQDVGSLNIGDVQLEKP
UniProt Q06481, residues 32-763: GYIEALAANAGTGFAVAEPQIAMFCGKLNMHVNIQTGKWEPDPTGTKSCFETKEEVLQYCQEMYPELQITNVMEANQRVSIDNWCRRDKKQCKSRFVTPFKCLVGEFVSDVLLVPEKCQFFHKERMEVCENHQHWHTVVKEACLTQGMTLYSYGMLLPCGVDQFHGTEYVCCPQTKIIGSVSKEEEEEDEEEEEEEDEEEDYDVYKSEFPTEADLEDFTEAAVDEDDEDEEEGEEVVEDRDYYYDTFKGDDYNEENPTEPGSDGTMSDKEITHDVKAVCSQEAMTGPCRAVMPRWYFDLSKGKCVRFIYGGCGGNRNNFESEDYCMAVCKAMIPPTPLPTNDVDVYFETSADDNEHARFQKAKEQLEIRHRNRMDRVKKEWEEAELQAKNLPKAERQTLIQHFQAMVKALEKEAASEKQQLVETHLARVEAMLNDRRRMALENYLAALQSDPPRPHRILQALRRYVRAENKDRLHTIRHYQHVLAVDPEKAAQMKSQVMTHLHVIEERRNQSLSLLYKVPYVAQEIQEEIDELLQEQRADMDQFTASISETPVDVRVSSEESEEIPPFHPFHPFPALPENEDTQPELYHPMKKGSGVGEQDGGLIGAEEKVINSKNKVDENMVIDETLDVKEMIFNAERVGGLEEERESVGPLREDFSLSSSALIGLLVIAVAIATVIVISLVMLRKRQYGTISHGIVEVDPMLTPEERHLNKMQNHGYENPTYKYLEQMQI

What was measured:
[1] = target: Myc-tagged CD22 WT (human) (UniProt P20273); assay: co-IP; anti-Myc co-IP of C-terminally Myc-tagged CD22 WT or Y-to-F mutants from PTP1B KO Ramos cells with induced FLAG-PTP1B-D181A-Y46F; immunoblot with anti-FLAG (n = 3) and anti-GRB2 (n = 1)
[2] = target: Myc-tagged CD22-Y807F mutant (human) (UniProt P20273); assay: as above
[3] = target: T1, FLAG-PTP1B D181A-Y46F substrate trapping mutant (full-length) (UniProt P18031); assay: co-IP; as the anti-FLAG co-IP, but cells lysed in the presence of 1 mM orthovanadate, which competes for binding at the catalytic centre; immunoblot
T1 sequence: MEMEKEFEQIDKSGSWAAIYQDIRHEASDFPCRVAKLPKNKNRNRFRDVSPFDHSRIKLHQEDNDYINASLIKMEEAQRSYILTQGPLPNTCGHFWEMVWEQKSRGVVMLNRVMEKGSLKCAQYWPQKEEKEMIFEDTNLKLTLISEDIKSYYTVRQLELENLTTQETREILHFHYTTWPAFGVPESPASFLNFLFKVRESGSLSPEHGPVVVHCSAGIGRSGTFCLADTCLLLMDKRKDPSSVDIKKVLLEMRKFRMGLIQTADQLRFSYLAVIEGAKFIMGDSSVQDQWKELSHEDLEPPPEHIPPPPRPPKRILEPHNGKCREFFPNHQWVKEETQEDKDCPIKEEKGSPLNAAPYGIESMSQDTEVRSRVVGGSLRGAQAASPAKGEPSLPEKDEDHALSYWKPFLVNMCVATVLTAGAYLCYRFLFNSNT

[4] = target: T1, FLAG-PTP1B D181A-Y46F substrate trapping mutant (full-length); assay: co-IP; anti-FLAG M2 magnetic beads, lysates of PTP1B KO Ramos cells with inducible FLAG-PTP1B WT or trapping mutants; lysis buffer 50 mM Tris-HCl pH 8.5, 137.5 mM NaCl, 1 mM EDTA, 1% Triton X-100; 2-4 h at 8°C; immunoblot of endogenous partners; no orthovanadate
[5] = target: T2, FLAG-PTP1B WT (protein tyrosine phosphatase 1B) (UniProt P18031); assay: as above
T2 sequence: T1 sequence with F46Y, A181D

[6] = target: T1, FLAG-PTP1B D181A-Y46F substrate trapping mutant (full-length); assay: condition: only with 1 mM orthovanadate in the lysis buffer; co-IP; as the anti-FLAG co-IP, but cells lysed in the presence of 1 mM orthovanadate, which competes for binding at the catalytic centre; immunoblot
[7] = target: T3, FLAG-PTP1B D181A-Y46F Δ406-435 (truncated trapping mutant without the ER-targeting domain) (UniProt P18031); assay: co-IP; anti-FLAG M2 magnetic beads, lysates of PTP1B KO Ramos cells with inducible FLAG-PTP1B WT or trapping mutants; lysis buffer 50 mM Tris-HCl pH 8.5, 137.5 mM NaCl, 1 mM EDTA, 1% Triton X-100; 2-4 h at 8°C; immunoblot of endogenous partners; no orthovanadate
T3 sequence: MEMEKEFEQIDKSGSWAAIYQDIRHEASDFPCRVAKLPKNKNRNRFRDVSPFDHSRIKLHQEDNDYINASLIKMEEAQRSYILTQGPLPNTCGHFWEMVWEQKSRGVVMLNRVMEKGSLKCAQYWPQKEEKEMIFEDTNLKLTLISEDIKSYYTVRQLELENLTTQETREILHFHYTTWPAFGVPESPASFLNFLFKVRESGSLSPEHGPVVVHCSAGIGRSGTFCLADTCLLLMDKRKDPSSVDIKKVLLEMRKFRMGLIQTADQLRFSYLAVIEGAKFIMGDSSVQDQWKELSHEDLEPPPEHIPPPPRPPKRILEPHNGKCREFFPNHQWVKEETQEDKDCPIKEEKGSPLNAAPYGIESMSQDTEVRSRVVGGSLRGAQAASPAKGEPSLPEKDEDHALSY

[8] = target: T4, PTP1B, endogenous in Ramos B cells (human (endogenous in Ramos)) (UniProt P18031); assay: proximity ligation; in situ PLA in fixed, permeabilised WT against PTP1B KO Ramos B cells; probes from anti-PTP1B and anti-Igα Fab, anti-CD22 or anti-APLP2; dots per cell
T4 sequence: T1 sequence with F46Y, A181D

binding [1] | binding [2] | binding [3] | binding [4] | binding [5] | binding [6] | binding [7] | binding [8] | Substance
binds | no binding | – | – | – | – | – | – | growth factor receptor-bound protein 2 (GRB2) (from UniProt P62993 1-217)
– | – | binds | binds | binds | – | – | – | Bruton tyrosine kinase (BTK) (from UniProt Q06187 1-659) (enzyme)
– | – | – | binds | – | no binding | no binding | – | Igα (CD79A), BCR signaling subunit α chain (from UniProt P11912 33-226) (receptor)
– | – | – | binds | binds | – | binds | binds | amyloid-like protein 2 (APLP2) (from UniProt Q06481 32-763)
– | – | – | binds | – | no binding | no binding | – | CD22 (cluster of differentiation-22), endogenous (from UniProt P20273 20-847) (receptor)
